Assay results published in PubChem BioAssay AID488896 (Broad Institute, 2010).
Among all 320,000 compounds or so, about 3,100 (0.97%) were called active. The shares of active, inactive and inconclusive entries below differ from those in the screen.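 Rule for the calls: active = mean replicate inhibition of at least 70% and a set share of replicates each scoring 70 or more; inconclusive = meets just one of the two criteria; inactive = fails both criteria.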 Where a structure was tested more than once in an assay, its records may differ in their call.

The compounds below were run against Scavenger receptor class B member 1 (Mus musculus) (UniProt Q61009) (assay: inhibitors of SR-BI mediated HDL lipid uptake, primary screen, ldlA[mSR-BI] cells, fluorescence, single point (AID 488896;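 note: 0% = median of neutral control wells and 100% = median of positive control wells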)). Conditions: ldlA[mSR-BI] CHO cells, DiI-HDL uptake fluorescence, 3 h; at 12.5 µM; hits give high values.
Chain of UniProt Q61009 (Q61009 whole entry, looked up): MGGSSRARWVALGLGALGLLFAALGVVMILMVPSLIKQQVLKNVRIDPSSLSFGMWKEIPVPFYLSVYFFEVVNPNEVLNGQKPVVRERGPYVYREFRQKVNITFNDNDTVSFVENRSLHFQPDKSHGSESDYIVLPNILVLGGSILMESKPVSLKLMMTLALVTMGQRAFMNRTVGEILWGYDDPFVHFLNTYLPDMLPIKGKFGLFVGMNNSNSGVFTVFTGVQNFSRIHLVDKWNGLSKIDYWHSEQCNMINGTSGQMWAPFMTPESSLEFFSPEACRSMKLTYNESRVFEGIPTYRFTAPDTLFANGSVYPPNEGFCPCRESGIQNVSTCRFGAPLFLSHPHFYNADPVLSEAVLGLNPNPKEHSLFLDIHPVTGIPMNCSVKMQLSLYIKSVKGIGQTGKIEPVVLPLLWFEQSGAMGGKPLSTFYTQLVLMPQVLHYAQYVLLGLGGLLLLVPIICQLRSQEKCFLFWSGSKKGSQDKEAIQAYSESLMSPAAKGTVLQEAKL

Which inhibition does the source give for `COc1cccc(N(C(=O)c2ccco2)c2nc(-c3sc(NC(=O)c4ccco4)nc3C)cs2)c1` here?
Its inhibition is inconclusive: 79.6%.

For `CCCOc1ccc(C(=O)Nc2ccc(N3CCN(C(=O)c4ccco4)CC3)cc2)cc1`, which inhibition is on record?
The inhibition was inconclusive: 70.9%.

With `O=C(N/N=C/C1=C(N2CCOCC2)C(=C\c2ccccc2)/CC1)Nc1ccccc1` as the compound, how does the inhibition read?
The inhibition was active: 73.9%.

For `O=C(Nc1ccccc1)C1=C(O)CC(c2ccoc2)CC1=Nc1ccccc1` (stereo unspecified), which inhibition is on record?
Its inhibition is inconclusive: 72.4%.

Which inhibition does the source give for `CNC(=O)c1c(NC(=O)c2ccco2)sc2c1CCCC2` here?
The inhibition was inconclusive: 71%.

For `CCCN(CCC)CCCNC(=O)c1cc2c(=O)n(CC)c3ccccc3c2s1`, which inhibition is on record?
Its inhibition is inconclusive: 71.7%.

With `COc1ccccc1NC(=S)NCC1CCC(CNC(=S)Nc2ccccc2OC)CC1` (stereo unspecified) as the compound, how does the inhibition read?
The inhibition was inconclusive: 73.3%.

For `Cc1cccc(CC2S/C(=N/c3ccccn3)NC2=O)c1` (stereo unspecified), which inhibition is on record?
The inhibition was inactive: 6.43%.

With `NS(=O)(=O)c1ccc(CCNC(=O)c2cc(-c3cccs3)nc3ccccc23)cc1` as the compound, how does the inhibition read?
Its inhibition is inconclusive: 72.5%.

Which inhibition does the source give for `CCOC(=O)c1cc2nc(Nc3ccc(OC)cc3)sc2s1` here?
The inhibition was active: 72.3%.

How did the inhibition turn out when `COc1cc2nc(N3CCNCC3)nc(N)c2cc1OC` was run?
Its inhibition is inactive: 0.587%.

`CSc1nncc(/C(C)=N\Nc2ccccc2C)n1` was tested. Which inhibition did it give?
The inhibition was inconclusive: 71.8%.

For `Cc1ccc(S(=O)(=O)NC2=C(N3CCN(c4ccccc4F)CC3)C(=O)c3ccccc3C2=O)cc1`, which inhibition is on record?
Its inhibition is active: 96.6%.

For `COc1cccc(OC)c1C(=O)NC(=S)Nc1ccc2oc(=O)ccc2c1`, which inhibition is on record?
The inhibition was inconclusive: 71.8%.

With `Cc1ccccc1NC(=S)c1nc2ccccc2[nH]1` as the compound, how does the inhibition read?
The inhibition was active: 78.7%.

Which inhibition does the source give for `CCOc1ccccc1CNC(=O)C1CCN(c2nc3ccccc3o2)CC1` here?
Its inhibition is inconclusive: 71.9%.

How did the inhibition turn out when `COc1ccc(NC(=O)CN2CCN(CC(=O)Nc3ccc(OC)c(OC)c3)CC2)cc1` was run?
The inhibition was inconclusive: 71.9%.

Which inhibition does the source give for `COC(=O)c1c(-c2ccc(N(C)C)cc2)sc2ccc(OC)cc12` here?
Its inhibition is active: 78.9%.

Which inhibition does the source give for `O=C(NCc1ccccn1)c1ccc(Cn2c(=S)[nH]c3ccccc3c2=O)cc1` here?
Its inhibition is inconclusive: 70.3%.

`COc1ccc(C(=O)On2c(-c3ccc(Br)cc3)nc3ccccc3c2=O)cc1` was tested. Which inhibition did it give?
The inhibition was inactive: -22.4%.

How did the inhibition turn out when `O=C(Nc1ccc(N2CCCCC2)c(Cl)c1)c1ccc(N2CCOCC2)c([N+](=O)[O-])c1` was run?
Its inhibition is active: 87.5%.

With `Cc1ccc2nc(NC(=O)c3ccc(OCC4CCCO4)cc3)sc2c1` (stereo unspecified) as the compound, how does the inhibition read?
The inhibition was inconclusive: 71.8%.

With `COc1ccc(OC)c(/C=C/C(=O)Nc2cccc(S(=O)(=O)N3CCCC3)c2)c1` as the compound, how does the inhibition read?
The inhibition was active: 87.1%.

`O=C(Nc1cccnc1)c1ccc(F)c(S(=O)(=O)N2CCOCC2)c1` was tested. Which inhibition did it give?
The inhibition was inactive: 0.947%.

With `COc1ccccc1/C=C/C=N/N1CCN(Cc2ccc(Cl)cc2)CC1` as the compound, how does the inhibition read?
Its inhibition is inconclusive: 70.2%.

`N#C/C(=C\c1ccc(Sc2ccc(Cl)cc2)o1)c1nc2ccccc2[nH]1` was tested. Which inhibition did it give?
Its inhibition is inactive: -22%.

Which inhibition does the source give for `c1ccc(CCNc2nc(-c3ccncc3)nc3ccccc23)cc1` here?
The inhibition was inconclusive: 72.5%.

How did the inhibition turn out when `Cc1cc(NC(=O)c2cc(-c3ccncc3)nc3ccccc23)ccc1Br` was run?
The inhibition was inconclusive: 72.2%.

Which inhibition does the source give for `N#Cc1ccc(CN2CCN(C(=O)c3ccc(S(=O)(=O)NCc4ccco4)cc3)CC2)cc1` here?
Its inhibition is inconclusive: 71.8%.

`CCCCNc1ccc2oc(-c3ccc(OC)cc3)c(-c3ccc(OC)c(F)c3)c2c1` was tested. Which inhibition did it give?
Its inhibition is inconclusive: 70.8%.

`CN(C)c1cc2c(c(N(C)C)c1)C(=O)c1ccccc1C2=O` was tested. Which inhibition did it give?
Its inhibition is inconclusive: 72.6%.

`O=[N+]([O-])c1ccc(Nc2nc(NC3CCCCC3)nc(N3CCCC3)n2)cc1` was tested. Which inhibition did it give?
Its inhibition is inconclusive: 73.2%.

How did the inhibition turn out when `Cc1ccnc(NC(=O)c2cccc(NC(=O)c3ccc(Cl)c(Cl)c3)c2)c1` was run?
Its inhibition is inconclusive: 74.4%.

With `c1ccc(N2CCN(c3ncnc4sc5c(c34)CCC5)CC2)cc1` as the compound, how does the inhibition read?
The inhibition was inconclusive: 74.3%.

Which inhibition does the source give for `COc1cc(C(=S)N2CCCC2)ccc1OC(=O)c1ccc(Cl)cc1[N+](=O)[O-]` here?
The inhibition was active: 112%.

`CC1CCCN(c2nc(N(C)c3ccccc3)nc(N)c2[N+](=O)[O-])C1` (stereo unspecified) was tested. Which inhibition did it give?
Its inhibition is inconclusive: 71.3%.

With `O=C(/C=C/NNC(=O)c1ccc(Cl)cc1)c1ccccc1` as the compound, how does the inhibition read?
The inhibition was active: 112%.

For `CCC(C)C(=O)Nc1nc(C)c(-c2csc(Nc3cc(OC)ccc3OC)n2)s1` (stereo unspecified), which inhibition is on record?
The inhibition was active: 80.1%.

For `COCCn1c(=NC(=O)c2ccco2)sc2cc(C(=O)OC)ccc21`, which inhibition is on record?
Its inhibition is inconclusive: 73.2%.

How did the inhibition turn out when `O=C1c2ccccc2C2=Nc3ccccc3SC(c3cccc(F)c3)C12` (stereo unspecified) was run?
The inhibition was inconclusive: 71.3%.

With `CCOc1ccc(NC(=O)CN2CCN(CC(=O)Nc3ccc(N(C)C)cc3)CC2)cc1` as the compound, how does the inhibition read?
Its inhibition is active: 86.1%.

How did the inhibition turn out when `NC(=S)NN=C1CCC(C2CCCCC2)CC1` (stereo unspecified) was run?
Its inhibition is inconclusive: 74.9%.

For `Cc1ccc(O)c(C(=O)c2cnc3c(c2)c(=O)n(C)c(=O)n3C)c1`, which inhibition is on record?
The inhibition was inconclusive: 71.3%.

For `COc1ccc(C(=O)c2cc([N+](=O)[O-])ccc2N2CCCC2)cc1`, which inhibition is on record?
Its inhibition is active: 70.4%.

For `O=C(CCC(=O)Nc1ccccc1)NNC(=O)C(c1ccccc1)c1ccccc1`, which inhibition is on record?
The inhibition was inactive: 13.5%.

With `COc1ccc2oc(C(=O)N3CCN(S(=O)(=O)c4c(C)c(C)cc(C)c4C)CC3)c(C)c2c1` as the compound, how does the inhibition read?
Its inhibition is inconclusive: 70.1%.

How did the inhibition turn out when `CN(Cc1ccccc1)Cc1c(O)ccc2ccccc12` was run?
Its inhibition is inactive: -22.5%.

With `CCCOC(=O)c1cccc(Nc2nc(-c3cccnc3)nc3ccccc23)c1` as the compound, how does the inhibition read?
The inhibition was inconclusive: 73.8%.

Which inhibition does the source give for `O=C(/C=C/c1ccc(OCCCF)cc1)Nc1ccnc(-c2cccnc2)n1` here?
The inhibition was inconclusive: 70.2%.

`CCCCn1c(N)c(N(CC)C(=O)c2cccc(S(=O)(=O)N3CCN(C)CC3)c2)c(=O)[nH]c1=O` was tested. Which inhibition did it give?
Its inhibition is inactive: -27.2%.

With `Cc1ccc(OCC(=O)N2CCN(c3nnc(-c4ccccc4)c4ccccc34)CC2)cc1` as the compound, how does the inhibition read?
Its inhibition is inconclusive: 72.5%.

For `O=C(c1ccc(S(=O)(=O)NCc2ccco2)cc1)N1CCN(Cc2ccc3c(c2)OCO3)CC1`, which inhibition is on record?
The inhibition was inconclusive: 71%.

Which inhibition does the source give for `COc1ccc(-c2cc(C(=O)Nc3ccc(Cl)cc3Cl)c3ccccc3n2)cc1OC` here?
Its inhibition is inconclusive: 70.6%.

`O=C(CNCc1ccc(Cl)cc1)Nc1ccc(C(=O)N2CCCCC2)cc1` was tested. Which inhibition did it give?
Its inhibition is inconclusive: 71.6%.

With `CCOC(=O)c1c(-c2ccccc2)csc1NC(=O)/C(C#N)=C/c1ccc(O)c(OC)c1` as the compound, how does the inhibition read?
The inhibition was inconclusive: 70.5%.

With `O=C(NNC(=S)NC(=O)c1cccnc1)c1ccc(Cl)cc1` as the compound, how does the inhibition read?
The inhibition was inactive: -12.1%.

With `COc1cc(OC)cc(C(=O)NC(=S)Nc2ccc(N3CCCC3)cc2)c1` as the compound, how does the inhibition read?
Its inhibition is inconclusive: 70.4%.

With `O=C(CCCC(=O)N(CC(=O)NC1CCCC1)C1CCCC1)Nc1ccccn1` as the compound, how does the inhibition read?
Its inhibition is inconclusive: 74.4%.

How did the inhibition turn out when `Cc1ccc(NC(=O)C2C(=O)N(CCO)C3(C)CC2c2ccccc2O3)cc1` (stereo unspecified) was run?
The inhibition was inactive: 25.3%.

How did the inhibition turn out when `CC1(C)CC2(CC(c3ccccc3F)c3cc(Cl)c(O)cc3O2)NC(=S)N1` (stereo unspecified) was run?
The inhibition was inconclusive: 75.3%.

How did the inhibition turn out when `CCOC(=O)N1CCN(C(=O)c2ccc(Cn3c(=S)[nH]c4cc(C(=O)OC)ccc4c3=O)cc2)CC1` was run?
Its inhibition is inconclusive: 73.3%.

Which inhibition does the source give for `COc1ccc(-c2nnc(Nc3ccc(OC)c(C(=O)N4CCCCC4)c3)c3ccccc23)cc1` here?
Its inhibition is inconclusive: 71.5%.

Which inhibition does the source give for `C/C(=N\Nc1nc2ccccc2nc1C)c1ccccc1O` here?
Its inhibition is inconclusive: 76.2%.

With `O=[N+]([O-])c1ccc(-c2ccc(/C=N/Nc3nc(N4CCCCC4)nc(N4CCCCC4)n3)o2)cc1` as the compound, how does the inhibition read?
Its inhibition is inconclusive: 77.1%.

`c1ccc(CN2CCN(c3ncccn3)CC2)cc1` was tested. Which inhibition did it give?
Its inhibition is inactive: 12%.

How did the inhibition turn out when `COc1ccc(-c2cc(C(F)(F)F)nc(SCCC(=O)N3CCN4CCCC4C3)n2)cc1` (stereo unspecified) was run?
The inhibition was inconclusive: 72.9%.

With `Cc1cc(C)c2nc(NC(=O)c3ccc4c(=O)n5c(nc4c3)CCCCC5)sc2c1` as the compound, how does the inhibition read?
The inhibition was inconclusive: 76.9%.

How did the inhibition turn out when `COc1cc(NC(=O)c2ccco2)c(OC)cc1NC(=O)CCC(=O)Nc1cc(C)ccc1C` was run?
Its inhibition is inconclusive: 70%.

How did the inhibition turn out when `COc1ccccc1NC(=O)c1ccc(NC(=O)COC(=O)c2ccc(O)cc2)cc1` was run?
Its inhibition is inconclusive: 70.4%.

How did the inhibition turn out when `O=C(COC(=O)CC(c1ccccc1)c1ccccc1)NCc1ccc(Cl)cc1` was run?
Its inhibition is inactive: -20.9%.

`C/C(=N\NC(=O)c1ccc(O)cc1)c1ccc2c(c1)Nc1ccccc1S2` was tested. Which inhibition did it give?
The inhibition was inconclusive: 72.3%.

For `CCOC(=O)c1sc2nc(N3CCCC3)c3c(c2c1N)CC(C)(C)OC3`, which inhibition is on record?
Its inhibition is inconclusive: 70.9%.

`COc1ccc(NC(=O)/C(=C\c2ccncc2)NC(=O)c2ccccc2)cc1` was tested. Which inhibition did it give?
The inhibition was inactive: 2.36%.

`COc1ccc(C(=O)COC(=O)c2ccc3c(c2)NC(=O)CS3)c(OC)c1` was tested. Which inhibition did it give?
The inhibition was inactive: 54%.

How did the inhibition turn out when `CCOC(=O)c1ccc(NC(=O)CNNC(=O)COc2ccccc2C)cc1` was run?
The inhibition was inactive: 14%.

With `COc1ccc2c(Cl)c(C(=O)NN)sc2c1` as the compound, how does the inhibition read?
The inhibition was inconclusive: 71.2%.

`Nc1nnnn1CC(=O)N/N=C/c1ccccn1` was tested. Which inhibition did it give?
The inhibition was inactive: -24.7%.

`O=C(CSc1nnc(SCc2cccc3ccccc23)s1)N/N=C/C=C/c1ccccc1[N+](=O)[O-]` was tested. Which inhibition did it give?
Its inhibition is inconclusive: 70.8%.

For `COCc1c(C#N)c(NCc2cc(OC)c(OC)c(OC)c2)nc(C)c1[N+](=O)[O-]`, which inhibition is on record?
Its inhibition is inconclusive: 71%.

For `COc1cc(OC)cc(-c2nc3cc(C)ccc3o2)c1`, which inhibition is on record?
Its inhibition is inconclusive: 70.2%.

How did the inhibition turn out when `Cc1ccc(-c2nnc(N3CCN(C(=O)c4cccs4)CC3)c3ccccc23)cc1` was run?
The inhibition was inconclusive: 73.8%.

How did the inhibition turn out when `Cc1ccc(-c2cc(C(=O)NCCc3ccc(S(N)(=O)=O)cc3)c3ccccc3n2)cc1` was run?
The inhibition was active: 85.7%.

Which inhibition does the source give for `Cc1ccccc1NC(=O)Cn1c(O)c(N=NC(=O)c2ccccc2O)c2ccccc21` here?
Its inhibition is inactive: 14.9%.

How did the inhibition turn out when `COC(=O)c1c(NC(=O)Cc2cccs2)sc2c1CCC(C)C2` (stereo unspecified) was run?
The inhibition was inconclusive: 70.4%.

For `CCc1ccc2oc(C(=O)Nc3nonc3CC)c(C)c2c1`, which inhibition is on record?
The inhibition was inactive: -7.88%.

With `COc1ccc(/C=N/NC(=O)c2ccccc2OCc2ccccc2)c(OC)c1` as the compound, how does the inhibition read?
The inhibition was inconclusive: 78.9%.
